Experimental data published in PubChem BioAssay AID1159614 (National Center for Advancing Translational Sciences (NCATS), 2016).
Screen size: about 45,000 compounds; about 65 (0.1%) were called active. The call rests on the fitted dose curve; in most records, active means well fitted activation curve with a large enough effect; inconclusive means small, poorly fitted or top-dose-only effect; inactive means no such curve, though single readings can be large or run the other way. Some of the results follow.

Molecular target: Galactocerebrosidase (Homo sapiens) (UniProt P54803)
Assay: A Novel Cell-Based Assay to Identify Small Molecules for B -Galactocerebrosidase; further: 0% is about no effect; nearly all actives have a fitted effect of over 65% in size
Settings: 145M-Twi-hGALC-G270D cells (Twitcher mouse brain line with human GALC G270D), HMU-beta-Gal fluorescence, 48 h; series mostly up to 57.5 µM; activation: at the top concentration
Summary of the method: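 Live 145M-Twi cells (Twitcher mouse brain-derived, GALC-null) stably expressing human GALC-G270D, with a wild-type GALC line, were compound-treated. Residual GALC activity was then read as fluorescence from 0.1 mM final HMU-β-gal at pH 5.2; higher signal means activation.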

Chain of UniProt P54803 (P54803 whole entry, looked up): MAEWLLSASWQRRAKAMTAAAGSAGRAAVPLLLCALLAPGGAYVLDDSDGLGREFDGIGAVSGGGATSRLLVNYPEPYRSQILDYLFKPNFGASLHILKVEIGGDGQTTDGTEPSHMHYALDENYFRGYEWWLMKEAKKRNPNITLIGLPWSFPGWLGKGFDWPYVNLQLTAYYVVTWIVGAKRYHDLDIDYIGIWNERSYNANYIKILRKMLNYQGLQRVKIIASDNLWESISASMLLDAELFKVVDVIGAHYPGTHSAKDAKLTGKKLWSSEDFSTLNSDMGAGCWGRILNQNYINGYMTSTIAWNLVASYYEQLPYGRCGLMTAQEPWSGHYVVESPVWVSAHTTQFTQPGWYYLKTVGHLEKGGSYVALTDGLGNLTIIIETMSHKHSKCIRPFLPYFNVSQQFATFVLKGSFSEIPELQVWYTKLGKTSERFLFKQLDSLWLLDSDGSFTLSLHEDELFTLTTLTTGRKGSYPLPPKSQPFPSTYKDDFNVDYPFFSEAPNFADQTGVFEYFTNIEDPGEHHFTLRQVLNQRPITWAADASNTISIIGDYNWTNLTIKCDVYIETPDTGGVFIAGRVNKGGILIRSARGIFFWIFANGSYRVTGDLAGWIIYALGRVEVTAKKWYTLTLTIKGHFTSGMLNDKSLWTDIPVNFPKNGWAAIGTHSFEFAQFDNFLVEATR

activation, inactive:
Cc1ccc(-c2noc(-c3ccc(N4CCCCC4)c([N+](=O)[O-])c3)n2)cc1 -12.8%
Clc1ccc(CCNC(c2nnc(-c3ccccc3)o2)c2ccccc2Cl)cc1 (stereo unspecified) -14.8%
CC(C)NC(=O)C1CCN(C(=O)N2CCOc3ccc(Cl)cc32)CC1 -16.2%
CCn1c(SCc2ccccc2Cl)nc(=O)c2c(C(=O)OC)cc(C3CC3)nc21 -15%
CNC(=O)COc1ccc(NC(=O)c2ccc(-c3nn(C)c(=O)c4ccccc34)cc2)cc1 -7.18%
CCOC(=O)c1c(NC(=O)c2cc(=O)c3c(C)cc(C)cc3o2)sc(C(C)=O)c1C -15%
CC(=O)Nc1nonc1-c1nnc(SCc2ccc(Cl)cc2)n1C -7.66%
Cc1nn(S(=O)(=O)c2ccc(Cl)cc2)c(C)c1S(=O)(=O)N1CCCCCC1 -4.64%
O=C(O)[C@H](O)[C@@H](O)[C@H](O[C@@H]1O[C@H](CO)[C@H](O)[C@H](O)[C@H]1O)[C@H](O)CO -16%
Cc1cc(C)c2c(-n3cccc3)c(C(=O)NCCCN3CCCCC3C)sc2n1 (stereo unspecified) -17.5%
COc1cc(-c2noc(-c3cc(C(C)C)[nH]n3)n2)cc(OC)c1OC -10.9%
NS(=O)(=O)c1ccc(CCNC(=O)c2nc(SCc3ccccc3F)ncc2Cl)cc1 -10.7%
COc1cccc(C2C(C(=O)Nc3ccccc3OC)=C(C)Nc3nc4ccccc4n32)c1 (stereo unspecified) -15.4%
CCc1ccccc1Nc1ncnc2c1nc1n2CCCC1 -7.7%
Cc1ccc2cccc(NC(=O)c3ccc(-c4ccc(Br)cc4)o3)c2n1 -12.4%
Cc1cc(=O)c2cc(C(=O)Nc3ccccc3)ccc2[nH]1 -3.95%
COc1cccc(N2C(=O)N(CC(=O)NCc3cccc(OC)c3OC)c3ccccc3S2(=O)=O)c1 -11.3%
CCc1ccc(-n2c(-c3ccccc3)c(C)n3c4c(=O)n(C)c(=O)n(C)c4nc23)cc1 2.32%
Cc1ccc(O)c(-n2nc3ccccc3n2)c1 -8.52%
Cc1cn2c(=O)cc(COc3ccccc3NC(=O)c3ccccc3C)nc2s1 -12.3%
Cc1ccc(-c2csc(/C(C#N)=C/c3ccccc3Cl)n2)cc1 -5.51%
O=C(Nc1ccc(F)cc1)c1cccn1-c1nnc(N2CCCCC2)s1 -15.3%
CC(=O)O[C@H]1C[C@@H]2CC[C@@H]3[C@H](CC[C@@]4(C)[C@H]3C[C@H]([N+]3(C)CCCCC3)[C@@H]4OC(C)=O)[C@@]2(C)C[C@@H]1N1CCCCC1 -20.1%
COc1ccccc1N1CCN(C(=O)CCS(=O)(=O)c2cc(Br)cc3c2N(C(=O)C2CC2)CC3)CC1 -14.9%
CCOC(=O)c1c(C)oc2nc(C)nc(N3CCN(c4ccccc4)CC3)c12 -13.1%
O=C(CSc1nnc(CNC(=O)c2ccccc2)n1-c1cccc(Cl)c1)Nc1ccccc1F -21.4%
COc1ccc2oc(=O)c(C(=O)NCCc3c(C)[nH]c4ccc(Br)cc34)cc2c1 0.922%
COc1ccc(CNC(=O)c2ccc(Cn3c(=O)c4cccn4c4cccnc43)cc2)cc1OC 4.38%
COc1ccc(N2CCN(C(=O)CCNS(=O)(=O)c3ccc4c(c3)CCN4C(=O)C3CC3)CC2)cc1 -31.2%
CCc1ccc(NC(=O)CSc2cn(CC(=O)N3CCCC3)c3ccccc23)cc1 -18.6%
CCOCCCNC(=O)NC(CCC(C)C)c1c(-n2cccc2)sc2c1CCN(C)C2 (stereo unspecified) 1.55%
O=C(Nc1cc(NC(=O)c2ccccc2Cl)ccc1Cl)c1ccccc1 -8.34%
CCOc1ccccc1CNC(=O)c1ccc2nc(Cc3ccc(OC)cc3)oc2c1 -31.8%
O=C(NCc1cccc(F)c1)C1CCN(C(=O)c2sccc2-n2cccc2)CC1 -21.8%
Cc1cc(C)cc(OCC2CNC(=O)O2)c1 (stereo unspecified) -14.2%
Cc1ccc(C)c(-c2nc(Cn3c(=O)cc(-c4ccccc4)c4c(C)nn(C)c43)c(C)o2)c1 -9.98%
CC(C)(C)C(=O)CSc1nc2ccsc2c(=O)n1Cc1ccccc1F 13%
CC(C(O)c1ccccc1)N(C)CCOC(c1ccccc1)c1ccccc1 (stereo unspecified) -15.1%
Cc1ccc(OCC(=O)Nc2ccc(S(=O)(=O)Nc3ncccn3)cc2)c(C(C)(C)C)c1 -7.03%
CN1CCN(CCCNC(=O)c2cnn(-c3ccccc3)c2-n2cccc2)CC1 5.48%
O=c1c2sc3ccccc3c2n(Cc2cccc(C(F)(F)F)c2)c(=O)n1Cc1ccco1 -13.3%
Cc1cc(C)cc(Nc2cc(C)nc3nncn23)c1 -11.6%
Cc1cccc(-c2nc3scc(CCNC(=O)c4ccc(Br)o4)n3n2)c1 -7.65%
CNC(=O)C1CCC(Cn2c(=O)c3sccc3n(CC(=O)NCc3cccc(OC)c3)c2=O)CC1 (stereo unspecified) -7.07%
COc1cccc(C(=O)N2CCc3c([nH]c4ccccc34)C2c2ccc(SC)cc2)c1 (stereo unspecified) -0.0597%
Cc1ccc(Nc2nnc(-c3cc4c(ccc5ccccc54)oc3=O)s2)cc1 4.88%
COc1ccc(CNC(=O)CN2C(=O)COc3ccc(S(=O)(=O)NC4CCCC4)cc32)cc1 6.71%
COc1ccc(CCNC(=O)CCc2c(C)nc3cc(-c4ccccc4OC)nn3c2C)c(OC)c1 -0.22%
COc1ccc(/C=C\c2onc(C)c2S(=O)(=O)N2CCC(C(=O)Nc3cccc(Cl)c3)CC2)cc1 -3.05%
COc1ccccc1NC(=O)CSc1nnc2c3ccccc3n(C(C)C)c2n1 -20.8%
CCOC(=O)c1cccc(NC(=O)Cn2c(=O)nc(-c3ccccc3F)c3cc(Cl)ccc32)c1 -5.79%
CCn1c(=O)c2cc(C(=O)N(CC(C)C)CC(C)C)sc2c2ccccc21 -33.1%
CCOc1ccc(CCNC(=O)c2csc3c2CCCCC3)cc1 2.24%
COc1cccc(CNC(=O)CCCN2C(=O)CCn3nc(-c4cccn4C)cc32)c1 -11.9%
CCN(C(=O)CSc1nc2ccccc2n1CC(=O)NCc1ccc(OC)cc1)c1ccccc1 -11.6%
CCOC(=O)c1ccc(NC(=O)CN2c3ccccc3S(=O)(=O)c3ccccc32)cc1 -8.34%
Cc1ccc2nc(CSc3nnc(NC(=O)c4cccc(Br)c4)s3)cc(=O)n2c1 3.24%
CCOC(=O)c1cc(-c2ccccc2)n(CCC(=O)NC2CCCCC2)c1C -16.4%
Cc1ccc(CNc2ncnc3c2nc2n3CCCC2)cc1 -1.08%
COc1ccc(-c2c(C)nn3c(N4CCN(c5ccccc5)CC4)cc(C)nc23)cc1OC -7.33%

Potency, inactive:
C[C@@H](O)[C@H]1C(=O)N2C(C(=O)O)=C(S[C@@H]3CN[C@H](C(=O)N(C)C)C3)[C@H](C)[C@H]12
